Assay results taken from the supplement of paper PMC9446081.
Screen size: about 39,000 compounds; about 220 (0.56%) showed activity. The list shows a part of the results.

Test system: Escherichia coli K-12 BW25113
Experiment: relative growth (OD600 normalised to plate interquartile mean) (fraction); higher = less growth inhibition, active = 0.2 or less
Settings: 50 µM; LB; incubation time: overnight (16-24 h)
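Note: static incubation at 37 °C against the wild-type strain, values averaged over two biological replicates.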

Structure (SMILES)	relative growth
COc1ccc([Si](C)(C)[C@H]2[C@H](CCO)O[C@@]3(C(=O)N(Cc4ccc(N5C(=O)c6cccc7cccc5c67)cc4)c4ccccc43)[C@@H]2C)cc1	inactive: 0.94
C[C@@H]1CN([C@@H](C)CO)C(=O)c2cc(NC(=O)CCC(F)(F)F)ccc2O[C@@H](C)CCCCO[C@H]1CN(C)S(=O)(=O)c1ccc(F)cc1	inactive: 1.01
COc1ccc(-c2ccccc2)cc1NC(=O)c1ccc2nc(C)c(N(C)C(=O)CCc3ccccc3)n2c1	inactive: 1.02
C[C@@H]1CN([C@H](C)CO)C(=O)c2cc(NC(=O)C3CCCCC3)ccc2O[C@@H](C)CCCCO[C@@H]1CN(C)Cc1ccc(C(F)(F)F)cc1	inactive: 0.972
Cc1ccccc1S(=O)(=O)N1[C@@H]2Cn3c(cccc3=O)[C@H]1[C@@H](C(=O)N1CCOCC1)[C@@H]2CO	inactive: 0.951
C[C@@H]1CN([C@@H](C)CO)C(=O)Cc2cc(NC(=O)Nc3ccc(F)cc3)ccc2O[C@H]1CN(C)Cc1ccc(Oc2ccccc2)cc1	inactive: 1.01
C[C@@H]1CN([C@H](C)CO)C(=O)c2cccc(NC(=O)Nc3cccc4ccccc34)c2O[C@@H]1CN(C)S(=O)(=O)c1ccc(F)cc1	inactive: 1.01
Cc1noc(C)c1NC(=O)Nc1ccc2c(c1)C(=O)N([C@H](C)CO)C[C@H](C)[C@@H](CN(C)Cc1ccncc1)OCCCC[C@H](C)O2	inactive: 1.01
C[C@H](CO)N1C[C@H](C)[C@@H](CN(C)S(C)(=O)=O)Oc2ccc(NC(=O)CCC(F)(F)F)cc2CC1=O	inactive: 0.981
Cc1noc(C)c1NC(=O)Nc1ccc2c(c1)C(=O)N([C@@H](C)CO)C[C@@H](C)[C@H](CN(C)C(=O)Nc1c(C)noc1C)OCCCC[C@H](C)O2	inactive: 1.02
C[C@H](CO)N1C[C@H](C)[C@@H](CN(C)Cc2ccc(C(F)(F)F)cc2)Oc2c(NC(=O)C3CCCCC3)cccc2C1=O	inactive: 0.965
C[C@@H]1CCCCO[C@@H](CN(C)Cc2ccc(C(F)(F)F)cc2)[C@@H](C)CN([C@H](C)CO)C(=O)c2cc(NS(=O)(=O)c3ccc(F)cc3)ccc2O1	inactive: 1.1
O=C(C[C@H]1CC[C@@H](NC(=O)Cc2ccccn2)[C@@H](CO)O1)NCCCN1CCOCC1	inactive: 0.983
C[C@@H]1CN([C@H](C)CO)S(=O)(=O)c2ccc(-c3ccc(F)cc3)cc2O[C@@H]1CN(C)S(C)(=O)=O	inactive: 1.02
Cc1ccc(NC(=O)COc2ccc(S(=O)(=O)N3CCOCC3)cc2)cc1S(=O)(=O)N1CCCCCC1	inactive: 1.01
C[C@H]1CN([C@@H](C)CO)C(=O)c2cccc(NC(=O)c3ccncc3)c2O[C@@H]1CN(C)S(=O)(=O)c1ccc(F)cc1	inactive: 1
COC(=O)[C@@H](O)c1ccccc1	inactive: 0.997
C[C@H]1CN([C@@H](C)CO)C(=O)c2cc(NC(=O)CCN3CCOCC3)ccc2O[C@@H]1CN(C)S(=O)(=O)c1ccccc1	inactive: 1.01
CCC(=O)N1C[C@]2(CN(C2)S(=O)(=O)C)c2c(n(c3cc(ccc23)OC)C)[C@@H]1CO	inactive: 0.967
C=C/C=C/[C@H]1C(=C)CN([C@H](Cc2ccc(-n3cc(C(=O)NO)nn3)cc2)C(=O)OC)[C@@H]1[C@H](O)Cc1ccccc1	inactive: 1.02

Structure (SMILES)	relative growth
COc1ccc(S(=O)(=O)Nc2ccc3c(c2)C(=O)N([C@@H](C)CO)C[C@@H](C)[C@@H](CN(C)S(=O)(=O)c2cn(C)cn2)OCCCC[C@@H](C)O3)cc1	inactive: 1.01
C[C@@H]1CCCCO[C@@H](CN(C)C(=O)Nc2ccc(F)cc2)[C@H](C)CN([C@H](C)CO)C(=O)c2cc(NC(=O)CCCN(C)C)ccc2O1	inactive: 1.02
C[C@@H]1CN([C@@H](C)CO)C(=O)c2ccccc2-c2ccccc2CO[C@@H]1CN(C)C(=O)Nc1ccc(-c2ccccc2)cc1	inactive: 1.04
C[C@H]1CN([C@@H](C)CO)C(=O)c2cc(NC(=O)c3ccncc3)ccc2O[C@H]1CN(C)S(=O)(=O)c1cn(C)cn1	inactive: 0.996
Cc1ccc(S(=O)(=O)Nc2ccc3c(c2)CC(=O)N([C@H](C)CO)C[C@H](C)[C@H](CN(C)S(=O)(=O)c2ccc(F)cc2)O3)cc1	inactive: 1.02
C[C@@H]1CCCCO[C@@H](CN(C)S(=O)(=O)c2ccccc2)[C@@H](C)CN([C@@H](C)CO)C(=O)c2cc(NS(C)(=O)=O)ccc2O1	inactive: 1.01
CC(C)CC#Cc1ccc2c(c1)O[C@@H](CN(C)S(=O)(=O)c1ccc(F)cc1)[C@H](C)CN([C@@H](C)CO)S2(=O)=O	inactive: 1.03
C[C@@H]1CN([C@H](C)CO)C(=O)c2cc(NC(=O)C3CCCCC3)ccc2O[C@@H](C)CCCCO[C@H]1CN(C)C(=O)Nc1ccccc1	inactive: 0.993
C[C@@H]1CN([C@H](C)CO)C(=O)c2cccc(NC(=O)Nc3ccc4c(c3)OCO4)c2O[C@H]1CN(C)Cc1ccc(C(=O)Nc2ccccc2N)cc1	inactive: 1.02
CC(C)NC(=O)Nc1ccc2c(c1)C(=O)N([C@@H](C)CO)C[C@H](C)[C@@H](CN(C)Cc1ccc(C(F)(F)F)cc1)OCCCC[C@H](C)O2	inactive: 1.04
C[C@H]1CN([C@@H](C)CO)C(=O)Cc2cc(NC(=O)Nc3cccc4ccccc34)ccc2O[C@H]1CN(C)Cc1ccc(C(=O)O)cc1	inactive: 1.02
N=C(N)NCCC[C@@H](NC(=O)[C@@H](N)Cc1ccc(O)cc1)C(=O)O	inactive: 0.971
COc1cccc(C)c1NC(=O)O[C@H]1[C@H](OC(=O)Nc2ccccc2-c2ccccc2)[C@H](OC(=O)Nc2ccccc2-c2ccccc2)[C@@H](OC)O[C@@H]1CO	inactive: 1.04
C[C@@H]1CCCCO[C@@H](CN(C)Cc2ccc(C(F)(F)F)cc2)[C@@H](C)CN([C@@H](C)CO)C(=O)c2cc(NC(=O)NC3CCCCC3)ccc2O1	inactive: 1.01
COCCC(=O)N1CCC2(CC1)COC2	inactive: 0.998
COCc1nc(C)c(CN)s1	inactive: 0.99
C[C@@H]1CN([C@H](C)CO)C(=O)c2cc(NS(=O)(=O)c3ccccc3)ccc2O[C@@H](C)CCCCO[C@@H]1CN(C)Cc1ccc(C(F)(F)F)cc1	inactive: 1.01
C[C@@H]1CN([C@H](C)CO)C(=O)c2cc(NC(=O)Nc3cccc4ccccc34)ccc2O[C@H]1CN(C)Cc1ccncc1	inactive: 0.968
C[C@@H]1CN([C@H](C)CO)C(=O)CCCn2cc(nn2)CO[C@H]1CN(C)S(=O)(=O)c1ccc(-n2cccn2)cc1	inactive: 0.999
C[C@@H]1[C@@H]([Si](C)(C)F)[C@H](CCO)O[C@@]12C(=O)N(Cc1cccc(N3C(=O)c4cccc5cccc3c45)c1)c1ccccc12	inactive: 1.01

Structure (SMILES)	relative growth
C[C@H]1CN([C@@H](C)CO)C(=O)c2cc(NC(=O)Cn3cnnn3)ccc2O[C@@H]1CN(C)C(=O)Nc1cccc2ccccc12	inactive: 1
COC(=O)[C@H](Cc1ccccc1)N1CC2=CCCC=C[C@H]2[C@@H]1[C@@H](O)CCn1cc(CCC(=O)NO)nn1	inactive: 1
C[C@H](CO)N1C[C@H](C)[C@H](CN(C)C(=O)Nc2ccc3c(c2)OCO3)Oc2c(NS(C)(=O)=O)cccc2C1=O	inactive: 1.01
Cc1noc(C)c1NC(=O)N(C)C[C@@H]1Oc2ccc(NS(=O)(=O)c3c(C)noc3C)cc2C(=O)N([C@@H](C)CO)C[C@H]1C	inactive: 0.988
Cc1noc(C)c1S(=O)(=O)N(C)C[C@H]1OCCCC[C@@H](C)Oc2ccc(NC(=O)Nc3ccc(F)cc3)cc2C(=O)N([C@@H](C)CO)C[C@H]1C	inactive: 1.01
Cc1ccc(S(=O)(=O)N(C)C[C@@H]2OCCCC[C@H](C)Oc3ccc(NC(=O)Nc4c(C)noc4C)cc3C(=O)N([C@H](C)CO)C[C@H]2C)cc1	inactive: 1.02
O=C(O)/C=C/C(=O)Nc1nccs1	inactive: 0.984
COCC(=O)N1C[C@H](C)[C@@H](OC)CN(C)C(=O)c2cc(NC(=O)c3ccc(OC)cc3)ccc2OC[C@H]1C	inactive: 0.969
O=C([O-])C1=C(CSc2nnnn2CS(=O)(=O)[O-])CSC2C(NC(=O)C(O)c3ccccc3)C(=O)N12.[Na+].[Na+] (centres undefined)	active: 0.044
COc1ccc(S(=O)(=O)N(C)C[C@H]2Oc3ccc(NS(=O)(=O)c4ccc(F)cc4)cc3C(=O)N([C@@H](C)CO)C[C@H]2C)cc1	inactive: 1.01
COCC#Cc1ccc([C@@H]2[C@@H](CO)N3C(=O)CN(C(=O)C4CCOCC4)C[C@H]23)cc1	inactive: 0.985
C[C@H]1CCCN(S(=O)(=O)CCN)C1	inactive: 0.998
Nc1cc(=O)nc(N)[nH]1	inactive: 1.04
O=c1c2c(c1=O)N(CCP(=O)(O)O)CCCN2	inactive: 0.989
CCC1C=C2C(=O)OC(=O)C2CC2=C(C(=O)OC2=O)C(OC(C)=O)C1CC (centres undefined)	inactive: 1.06
O=C(CCCCCCC(=O)Nc1ccc([C@H]2C[C@H](c3ccccc3)O[C@H](c3ccc(Oc4ccccc4)cc3)O2)cc1)NO	inactive: 1.01
NCCCC(N)CC(=O)NC1CNC(=O)C(C2CC(O)NC(N)=N2)NC(=O)C(=CNC(N)=O)NC(=O)C(CO)NC(=O)C(CO)NC1=O.O=S(=O)(O)O (centres undefined)	inactive: 0.993
COc1ccc(S(=O)(=O)Nc2cccc3c2O[C@H](CN(C)S(=O)(=O)c2ccccc2)[C@@H](C)CN([C@@H](C)CO)C3=O)cc1	inactive: 0.991
C[C@H]1CN([C@@H](C)CO)C(=O)c2cc(C#Cc3ccc(F)cc3)cnc2O[C@@H]1CN(C)Cc1ccccn1	inactive: 0.971
